The values that follow come from PubChem BioAssay AID1508623 (National Center for Advancing Translational Sciences (NCATS), 2021).

Structures are written as SMILES. Among all 48,000 compounds or so, about 450 (0.94%) were called active. About 19% were inconclusive and are not listed. Calls come from the whole dose curve; as a rule, active = well fitted inhibition curve with a large enough effect; inconclusive = small, poorly fitted or top-dose-only effect; inactive = no such curve, though single readings can be large or run the other way. The list shows a part of the results.
Potency is the fitted concentration of half-maximal effect.

The test can be described thus: Primary qHTS for Identification of Small Molecule Inhibitors of Huntingtin Promoter Activity. Note: nearly all actives have a fitted effect of over 50% in size. Particulars: HEK293 HTT promoter firefly luciferase reporter (activity 0% = vehicle and -100% = no light), 24 h; series mostly up to 57.5 µM; activity change, negative = inhibition: at the top concentration. In outline: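 Firefly luciferase readout (Dual-Glo, 10 min RT) after 24 h, 37 °C compound exposure (final up to 57.5 uM) of HEK293 reporter cells cultured 24 h beforehand; PTC124 at 50 uM final as control inhibitor; activity scaled vehicle 0%, zero RLU -100%.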
For the compound `Cc1ccc2[nH]c(CSc3nnc(NC(=O)COc4ccccc4C)s3)cc(=O)c2c1`, the “activity change, negative = inhibition” value was inactive: -6.42%.
As to `Cc1cccc(C)c1NC(=O)c1c(C)oc2c1C1=NCCN1C=N2`, the “activity change, negative = inhibition” value is inactive: -7.19%.
With `CCCOCc1cc(CN2CCN(c3cccc(Cl)c3)CC2)c(O)c2ncccc12`, the Potency was active: 8.91 µM.
In the case of `COc1ccc(Nc2cc(C(=O)NCCCN(C)c3ccccc3)c3ccccc3n2)c(OC)c1`, the “activity change, negative = inhibition” value was inactive: -3.36%.
As for `Cc1cccc(CCNC(=O)c2ccc3c(c2)nc2n3CCOC2)c1`, the “activity change, negative = inhibition” value was inactive: 50.5%.
On to `COC(=O)c1ccc(NC(=O)c2cc(S(=O)(=O)N3CCC(C)CC3)cn2C)cc1`, for which the “activity change, negative = inhibition” value was inactive: -13.7%.
Still for that read-out and setting: the value for `CCOC(=O)c1ccc(Nc2nc(N)c3cc(OC)c(OC)cc3n2)cc1` was inactive: -28.4%; that for `CCn1cc(C(=O)NCCCN2CCC(C)CC2)c(=O)c2cc(S(=O)(=O)N(C)C3CCCCC3)ccc21` was inactive: -6.64%; that for `COc1ccc(C(=O)c2oc3ccccc3c2NC(=O)COc2cccc(C)c2)cc1` was inactive: -11.3%.
Regarding `CN1CCC[C@@H]1Cc1c[nH]c2ccc(CCS(=O)(=O)c3ccccc3)cc12`, the “activity change, negative = inhibition” value was inactive: -5.36%.
In the case of `Cc1nn(C)c2c1c(-c1ccccc1)cc(=O)n2C(C)C(=O)NCCc1ccc(Cl)cc1` (stereo not drawn), the “activity change, negative = inhibition” value is inactive: -9.11%.
On the same count and under the same terms, the value for `COc1ccc(S(=O)(=O)NCC(c2ccco2)N2CCN(c3ccccc3F)CC2)cc1OC` (stereo not drawn) was inactive: -17.7%.
Still for that read-out and setting: the value for `CC(C)c1nc2ccc(C(=O)NCc3ccc(F)cc3)cc2o1` was inactive: -13.1%; that for `CC1CCN(C(=O)c2ccccc2NC(=O)c2nsc3ccccc23)CC1` was inactive: -0.111%; that for `CCc1cccc(NC(=O)C2CCCN2S(=O)(=O)c2ccc3c(c2)n(C)c(=O)c(=O)n3C)c1` (stereo not drawn) was inactive: -8.6%.
Same read-out and setting: the value for `COc1ccc(-n2c(SCC(=O)Nc3cc(C)cc(C)c3)nc3c(oc4ccccc43)c2=O)cc1` was inactive: -4.35%.
Take `CCOc1ccc(-c2cc(NC(=O)c3c(F)cccc3F)c(C(=O)OC)s2)cc1`: the “activity change, negative = inhibition” value is inactive: 8.3%.
In the case of `COc1ccccc1N1CCN(C(=O)c2nc(-c3ccc(C)cc3)n3c2CCCCC3)CC1`, the “activity change, negative = inhibition” value is inactive: -17.3%.
Still for that read-out and setting: the value for `COc1ccc(NC(=O)c2cc(S(=O)(=O)N3CCCCC3)c[nH]2)cc1Cl` was inactive: -22%; that for `Cc1ccc(Cl)cc1NC(=O)c1cnn2c(C(F)F)cc(-c3ccccc3)nc12` was inactive: 0.0095%; that for `Cc1cc(C)c(/C=C/c2onc(C)c2S(=O)(=O)N2CCC(C(=O)NCC(C)c3ccccc3)CC2)c(C)c1` (stereo not drawn) was inactive: -31.4%.
On the same count and under the same terms, the value for `Cc1cc(NC(=O)CC(C)C)cc(-c2nc3ncccc3o2)c1O` was inactive: -5.93%; that for `CC(C)[N+](C)(CCOC(=O)C1c2ccccc2Oc2ccccc21)C(C)C` was inactive: -5.65%; that for `Cc1ccc(CNC(=O)CCCCn2c(=O)c3ccccc3n(Cc3ccc(C)cc3)c2=O)cc1` was inactive: -7.44%.
In the case of `CCOC(=O)c1c(S(=O)(=O)N2CCC(C(=O)NCc3ccccc3OC)CC2)c(C)n(C)c1C`, the “activity change, negative = inhibition” value is inactive: -6.05%.
`CCCCSCCCNC(=O)c1cn(C)c2ccc(S(=O)(=O)N3CCCC3)cc2c1=O`: the activity change, negative = inhibition was inactive: -21.6% [at 11.5 µM].
On to `Cc1cc(C)cc(OCC(=O)N(Cc2ccc(Cl)cc2)CC2CCCO2)c1` (stereo not drawn), for which the “activity change, negative = inhibition” value was inactive: -14.9%.
In the case of `O=C(NC1CCCC1)c1ccc2c(=O)n(Cc3ccccc3)c(SCc3ccccc3)nc2c1`, the “activity change, negative = inhibition” value was inactive: -5.65%.
Consider `Cc1ccc(-n2nc(C(=O)Nc3ccc(C)c(F)c3)c(=O)n(C)c2=O)cc1`, for which the “activity change, negative = inhibition” value was inactive: -3.18%.
Consider `COc1ccc(-c2nc3ccc(C)cn3c2Nc2ccc3c(c2)OCO3)cc1`, for which the “activity change, negative = inhibition” value was inactive: 15.1%.
`COc1cc(C(=O)N2CCN(c3ccc(Nc4ccccc4)nn3)CC2)cc(OC)c1OC`: the “activity change, negative = inhibition” value is inactive: -6.92%.
Same read-out and setting: the value for `Cc1ccc(-n2nnnc2CNC(=O)c2ccccc2)cc1C` was inactive: 1.47%; that for `CC1CCCCN1S(=O)(=O)c1cc2c3c(c1)CC(=O)N3CCC2` (stereo not drawn) was inactive: -20.7%; that for `COc1cc(C(=S)N2CCOCC2)cc(OC)c1OC` was inactive: 6.57%.
Same read-out and setting: the value for `O=C(Cn1c(=O)n(Cc2ccc(C(=O)NCc3ccccc3Cl)cc2)c(=O)c2ccccc21)Nc1ccc(F)c(Cl)c1` was inactive: -7.1%; that for `COc1ccc(N2CC(NC(=O)COc3ccc4ccccc4c3)CC2=O)cc1` (stereo not drawn) was inactive: -20.3%; that for `CN(C)S(=O)(=O)c1ccc2c(c1)N(CC(=O)N1CCN(c3ccccc3F)CC1)CCS2` was inactive: -16.6%.
`COc1cccc(C(=O)Nc2ccccc2-c2nc3ccccc3s2)c1`: the “activity change, negative = inhibition” value is inactive: -9.52%.
On the same count and under the same terms, the value for `Cc1cccc(CNC(=O)CN2C(=O)CCCc3ccccc32)c1` was inactive: 18%; that for `Cc1ccc(-c2nc(CS(=O)(=O)CC(=O)NCc3ccccc3Cl)c(C)o2)cc1` was inactive: -2.22%.
Still for that read-out and setting: the value for `CC(C)Cc1ccc(CC(=O)O)cc1` was inactive: 6.93%; that for `Cc1oc(-c2cccc(Cl)c2)nc1CN1CCCC(C(=O)NCc2ccc(Cl)cc2)C1` (stereo not drawn) was inactive: -13.1%; that for `NC(N)=NCCC[C@H](N)C(=O)O` was inactive: 10.3% [at 6.01 µM].
`O=S(=O)(c1ccc2[nH]c3c(c2c1)CCCCC3)N1CCN(c2cccc(Cl)c2)CC1`: the “activity change, negative = inhibition” value is inactive: -0.646%.
In the case of `CC1=C(C(=O)Nc2cccc(C(F)(F)F)c2)C2(CCCCC2)OC1=O`, the “activity change, negative = inhibition” value was inactive: -24.9%.
On the same count and under the same terms, the value for `Cc1cccc(NC(=O)c2sc(-n3nc(C)c(CCC(C)C)c3C)nc2C)c1C` was inactive: -2.67%; that for `CCOC(=O)C1CCN(c2c(C(=O)c3ccc(C)cc3)cnc3ccc(F)cc23)CC1` was inactive: -12.1%; that for `COc1ccc(NC(=O)CN2C(=O)c3ccccc3Sc3ccc(C(=O)N4CCOCC4)cc32)c(OC)c1` was inactive: -22.1%.
